Experimental data taken from publication PMC4336329 (PLoS ONE, 2015).
Hit rate of the full screen: of about 310,000 compounds, about 14,000 (4.5%) showed an effect of 50% or more. The effect is printed as a negative number. Some of the results follow.

target: human ether-à-go-go-related gene (hERG) potassium channel (human, UniProt Q12809); assay: primary screen, population patch clamp on CHO cells stably expressing hERG
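Note: peak tail current of the secondary pulse compared with the same well before compound.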

Sequence of human ether-à-go-go-related gene (hERG) potassium channel (Q12809 whole entry, looked up): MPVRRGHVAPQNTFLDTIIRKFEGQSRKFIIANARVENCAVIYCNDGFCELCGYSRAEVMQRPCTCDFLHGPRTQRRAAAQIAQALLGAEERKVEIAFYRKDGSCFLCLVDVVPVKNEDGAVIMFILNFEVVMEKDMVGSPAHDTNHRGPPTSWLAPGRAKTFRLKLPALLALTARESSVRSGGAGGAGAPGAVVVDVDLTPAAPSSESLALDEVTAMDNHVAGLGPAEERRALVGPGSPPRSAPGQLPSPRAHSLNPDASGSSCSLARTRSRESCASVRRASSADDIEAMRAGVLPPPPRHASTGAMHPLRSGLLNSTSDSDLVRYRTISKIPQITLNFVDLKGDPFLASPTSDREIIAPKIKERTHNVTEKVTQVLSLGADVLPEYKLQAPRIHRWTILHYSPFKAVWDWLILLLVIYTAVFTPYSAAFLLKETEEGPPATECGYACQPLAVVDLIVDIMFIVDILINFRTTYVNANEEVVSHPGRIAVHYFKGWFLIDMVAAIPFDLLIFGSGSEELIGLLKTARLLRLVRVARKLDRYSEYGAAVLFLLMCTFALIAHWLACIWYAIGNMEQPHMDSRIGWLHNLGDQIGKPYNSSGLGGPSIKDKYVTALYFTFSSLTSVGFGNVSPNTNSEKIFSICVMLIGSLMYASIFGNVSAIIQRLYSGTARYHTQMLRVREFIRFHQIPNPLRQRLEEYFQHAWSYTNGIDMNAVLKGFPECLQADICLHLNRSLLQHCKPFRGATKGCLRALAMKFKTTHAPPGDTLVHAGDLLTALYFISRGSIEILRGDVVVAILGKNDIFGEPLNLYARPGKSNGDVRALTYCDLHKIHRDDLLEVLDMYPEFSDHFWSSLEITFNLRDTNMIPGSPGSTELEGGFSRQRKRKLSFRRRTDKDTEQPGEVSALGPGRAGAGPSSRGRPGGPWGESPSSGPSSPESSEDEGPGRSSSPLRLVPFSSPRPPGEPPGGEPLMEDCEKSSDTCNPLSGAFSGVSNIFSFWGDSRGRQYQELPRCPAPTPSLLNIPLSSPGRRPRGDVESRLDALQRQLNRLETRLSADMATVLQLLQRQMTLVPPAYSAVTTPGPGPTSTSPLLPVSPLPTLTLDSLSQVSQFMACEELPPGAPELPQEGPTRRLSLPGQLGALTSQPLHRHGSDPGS

Row | SMILES | hERG current change (%, negative = inhibition) at 10uM
1 | Nc1c(C(=O)NCC2CCCO2)c2nc3ccccc3nc2n1-c1ccccc1 (stereo not drawn) | 2.35%
2 | CCOC(=O)c1ccc(NC(=O)CSc2ncccn2)cc1 | 6.76%
3 | CCOC(=O)/C=c1\s/c(=C(\C#N)C(=O)NC)n(-c2ccccc2)c1=O | 10.6%
4 | COCCN=C1N[C@@H](c2ccc(Br)cc2)C(C(=O)OC)=C(C)N1Cc1ccccc1 | -55.3%
5 | COc1ccc(CCNC(=O)c2cc(S(=O)(=O)N3CCOCC3)cn2C)cc1OC | -0.633%
6 | O=C(Cn1c(C(F)(F)F)nc2ccccc21)Nc1ccccc1C(=O)O | 8.51%
7 | COc1ccc(CN2CCN(C(=O)Cn3nc(C)n4cccc4c3=O)CC2)c(OC)c1OC | 17.2%
8 | COc1cc(/C=N/n2c(-c3n[nH]c4c3CCC4)n[nH]c2=S)ccc1O | 21%
9 | Cc1cccc(C(=O)N2CCCC(c3nc(-c4ccc(F)cc4)no3)C2)c1 (stereo not drawn) | -9.94%
10 | Cc1ccc(CCNC(=O)C2CCC(=O)N(Cc3cccc(F)c3)C2)cc1 (stereo not drawn) | -4.64%
11 | CCOC(=O)c1ccc(NC(=O)CN(C)S(=O)(=O)c2ccc(Br)s2)cc1 | 6.95%
12 | C=CCC(NC(=O)c1ccc(C#N)cc1)C(=O)NCCC (stereo not drawn) | -1.44%
13 | Cc1oc2nc(SCC(=O)Nc3ccc(S(N)(=O)=O)cc3)nc(NC(=O)c3ccccc3)c2c1C | -2.65%
14 | Nc1cc(=O)[nH]c(SCCSc2ccccc2)n1 | 11.4%
15 | Cc1cc(C)c(-c2cc(NC(=O)COC(=O)c3ccc(NC(=O)CC#N)cc3)n(-c3ccccc3)n2)cc1C | 0.104%
16 | O=C(O)/C=C/C(=O)N1Cc2cc3ccccc3nc2C1 | 1.94%
17 | COC(=O)C1(C)NC(c2ccccc2C)C2C(=O)N(c3ccccc3)C(=O)C21 (stereo not drawn) | 13%
18 | COc1ccccc1Nc1nc(-c2sc(NC(=O)c3cccc(Cl)c3)nc2C)cs1 | 15.4%
19 | O=C(Nc1cccc(Cl)c1)N1CCSc2cc(Cl)ccc21 | 2.92%
20 | NC(=O)c1ccsc1NC(=O)c1cccs1 | -13.6%
21 | O=C(CCCc1ccccc1)N=C1SC2CS(=O)(=O)CC2N1c1ccccc1 (stereo not drawn) | 15.9%
22 | O=c1[nH]c2ccccc2n1CCCSCCCn1c(=O)[nH]c2ccccc21 | 1.36%

Row | SMILES | hERG current change (%, negative = inhibition) at 10uM
23 | O=C(COC(=O)C1CCN(S(=O)(=O)c2c(Cl)cccc2Cl)CC1)NCc1ccco1 | -38.6%
24 | Cc1ccc(-c2nc(NCCN3CCOCC3)c3ccccc3n2)cc1 | -12.4%
25 | Cc1ccc(C(=O)NC(=S)NCC2CCCO2)cc1[N+](=O)[O-] (stereo not drawn) | 10.1%
26 | CCc1ccc(C(CC(=O)O)N2Cc3ccccc3C2=O)cc1 (stereo not drawn) | 31.2%
27 | COc1cc(/C=C2/C(=N)N3C(=NC2=O)SN=C3S(C)(=O)=O)ccc1OC(=O)c1ccco1 | 19.4%
28 | CCNc1nc(C)nc2c1oc1ccccc12.Cl | -7.52%
29 | Cn1cccc1/C=N/NC(=O)CSc1nc2ccccc2n1C | -10.9%
30 | CC(OC(=O)c1ccc(Cl)c(S(N)(=O)=O)c1)C(=O)NCc1ccc2c(c1)OCO2 (stereo not drawn) | -5.89%
31 | CS(=O)(=O)c1ccccc1-c1nc(-c2ccc(C(F)(F)F)cc2)no1 | 5.31%
32 | CN1C[C@@H]2C[C@@H](C3=Cc4cc(Cl)ccc4OC3)N3CCC[C@@]23C1=O | -32.7%
33 | O=C(COc1ccccc1)Nc1ccc(Cl)cn1 | 29%
34 | Cc1ccc(CSc2nnc(-c3ccccn3)n2N)cc1 | 9.42%
35 | Cc1ccc(OCCNc2ccc(C(F)(F)F)cc2[N+](=O)[O-])cc1 | 16.7%
36 | CSCCC(NS(=O)(=O)c1ccc(Cl)cc1)C(=O)O (stereo not drawn) | 15.3%
37 | COc1ccc2oc(C(=O)OCC(=O)NCCN3C(=O)CSC3=O)c(C)c2c1 | -17.1%
38 | Cc1ccc2c(c1)N(CC(=O)NC1CCCC1)C(=O)c1cccnc1O2 | 1.81%
39 | Cc1ccc(CCNC(=O)CN2C(=O)COc3ccc(S(=O)(=O)N4CCOCC4)cc32)cc1 | 5.43%
40 | CCn1c2ccccc2c2cc(NC(=O)COC(=O)c3ccccc3Br)ccc21 | 14%
41 | CC[C@H](C)[C@H](NC(=O)c1ccccc1)C(=O)NC(CC(=O)O)c1ccc(F)cc1 (stereo partly drawn) | 29.8%
42 | Cc1noc(C)c1C(=O)NCc1ccccc1Br | 13.4%
43 | CCOC(=O)c1c(C)[nH]c(C(=O)OC)c1CCC(=O)OC | 8.36%
44 | O=C(NCCCn1ccnc1)c1ccc(Br)o1 | 3.98%

Row | SMILES | hERG current change (%, negative = inhibition) at 10uM
45 | N#C/C(=C\c1ccco1)C(=O)NCc1ccccc1 | 4.87%
46 | O=C(Nc1ccc(S(=O)(=O)N2CCCCC2)cc1)C1CCCCC1 | -4.39%
47 | O=C(O)c1cc(S(=O)(=O)NCC2CCCO2)ccc1Cl (stereo not drawn) | -1.74%
48 | Cn1nnnc1SCC(=O)c1ccco1 | 8.25%
49 | Cc1nn(CC(=O)Nc2ccc(Br)cc2F)c(=O)c2cccn12 | -13.4%
50 | Cc1ccc(-n2c(COc3c(C)cccc3C)nnc2SCC(=O)Nc2nccs2)cc1 | -7.46%
51 | CCN1C(=O)N[C@@H](c2ccccc2)C(C(=O)OC)=C1C | -1.67%
52 | Cc1ccc(/C=N/NC(=O)CSc2nc3nc(C)cc(C)n3n2)cc1 | -19.3%
53 | Nc1c2c(nc3ccccc13)CCC2.O=C(O)/C=C/C(=O)O | -18.2%
54 | FC(F)Sc1nc(-c2ccccc2)c(-c2ccccc2)n1C(F)F | -0.303%
55 | Cc1ccc(C)c(NC(=O)CCCCCN2C(=O)[C@@H]3Cc4ccccc4CN3C2=O)c1 | -16.8%
56 | O=C(O)c1cc(NC(=O)c2cccc(N3C(=O)c4ccccc4C3=O)c2)cc(C(=O)O)c1 | -2.06%
57 | CC(C)C(NC(=O)C(c1ccccc1)c1ccccc1)c1nc2ccccc2[nH]1 (stereo not drawn) | 14.5%
58 | Cc1nc(=O)c(-c2ccccc2)c(C)n1-c1ccccc1Cl | -4.38%
59 | COC(=O)Cn1c(C)c(/C=C/c2cc[n+](C)cc2)c2ccccc21.[I-] | 9.71%
60 | O=C1c2ccccc2C(=O)N1c1ncccn1 | 10.7%
61 | COc1ccc(S(=O)(=O)N2CCN(C(=O)c3sccc3-c3ccccc3)CC2)cc1 | -29.5%
62 | O=C(NC1CCCc2ccccc21)C1CCN(c2c3c(nc4ncnn24)CCC3)CC1 (stereo not drawn) | -31.3%
63 | C=CCn1c(SCc2nc3scc(-c4ccccc4)c3c(=O)[nH]2)nnc1-c1ccccc1F | -26.3%
64 | COc1ccc2[nH]c(=O)c(CN(C(=O)c3cccnc3)c3cccc(C)c3)cc2c1 | 11.5%
65 | CCn1nc(C)c(CNC(=O)c2cc(COc3cncc(Cl)c3)on2)c1C | -2.83%
66 | O=C1C(=O)N(CCCn2ccnc2)C(c2cccc(Br)c2)/C1=C(\O)c1ccc2c(c1)OCCO2 (stereo not drawn) | -0.29%

Row | SMILES | hERG current change (%, negative = inhibition) at 10uM
67 | Cn1c(=O)cc(OCCCC(=O)NCc2ccco2)c2ccccc21 | -2.62%
68 | Cc1noc(C)c1COC(=O)c1ccc(F)c(S(=O)(=O)N2CCOCC2)c1 | -8.52%
69 | CCCCOCCCNC(=O)c1ccc([N+](=O)[O-])c(C)c1 | -31.2%
70 | CCc1c(C)nc2cc(-c3ccc(OC)c(OC)c3)nn2c1NCC1CC1 | -22.7%
71 | CC1CCCN(c2ccc(C(=O)NCc3cccs3)cn2)C1 (stereo not drawn) | -12.8%
72 | CC1CCC(N(CCCN)Cc2ccco2)CC1C (stereo not drawn) | -5.49%
73 | Cc1ccc2nc(-c3ccccc3)cc(C(=O)NCC(c3ccco3)N(C)C)c2c1 (stereo not drawn) | -28.6%
74 | O=C(CSc1n[nH]c(-c2ccccn2)n1)Nc1ccccc1 | -6.86%
75 | Cc1ccc(CCC(=O)Nc2ccccc2F)s1 | 4.06%
76 | CCOc1ccccc1NC(=O)c1ccccc1N(C)S(C)(=O)=O | 13.9%
77 | CCOc1ccc(CNCCc2ccc(S(N)(=O)=O)cc2)cc1.Cl | -70.1%
78 | CC1CN(c2nc3ccccc3nc2SCC(=O)Nc2ccc(F)cc2)CC(C)O1 (stereo not drawn) | 3.8%
79 | NC(=O)c1ccccc1NS(=O)(=O)c1cccs1 | 14.4%
80 | COc1ccc(CN=CC2=C(O)CC(C)(C)CC2=O)cc1 | 0.178%
81 | CC(=O)C1=C(C)OC(N)=C(C(=O)OC(C)C)C12C(=O)Nc1ccccc12 (stereo not drawn) | -1.44%
82 | O=C(NCc1ccccn1)c1ccc(N2CCCC2=O)cc1 | 10.6%
83 | Cc1cccc(CNCCc2c[nH]c3ccccc23)c1.O=C(O)C(=O)O | -30.6%
84 | Cc1ccccc1-n1c(Cn2c(=O)sc3ccccc32)nnc1SCC(=O)Nc1nccs1 | 5.61%
85 | COc1ccc(-c2csc(N(CCCN3CCOCC3)C(=O)c3ccco3)n2)cc1.Cl | -32.4%
86 | O=C(Cn1cnc2c(oc3ccccc32)c1=O)c1ccccc1 | 2.38%
87 | CCOC(=O)N1CCN(C(=O)Cn2nc(C)c3sc4ccccc4c3c2=O)CC1 | -6.08%
